Values joined by “and” are separate entries in the source; they are usually repeats but may differ in a detail not shown here. Equal values may be shown once. The campaign covered roughly 370,000 compounds. About 1,100 (0.3%) were called active. The inconclusive results got no clear call from the source; some entries with a clear call stand among them for comparison. Calls follow the shape of the dose curve; as a rule, active = well fitted activation curve with a large enough effect; inconclusive = small, poorly fitted or top-dose-only effect; inactive = flat fitted curve, though single readings scatter. A potency beside an inconclusive call is a rough fit, not a confirmed value.
molecular target: Relaxin receptor 1 (Homo sapiens) (UniProt Q9HBX9); assay: qHTS Assay for Agonists of the Relaxin Receptor RXFP1; details: HEK293T-RXFP1 cAMP TR-FRET, 30 min; series mostly up to 57.5 µM; also: nearly all actives have a fitted effect of over 60% in size
Chain of UniProt Q9HBX9 (Q9HBX9 whole entry, looked up): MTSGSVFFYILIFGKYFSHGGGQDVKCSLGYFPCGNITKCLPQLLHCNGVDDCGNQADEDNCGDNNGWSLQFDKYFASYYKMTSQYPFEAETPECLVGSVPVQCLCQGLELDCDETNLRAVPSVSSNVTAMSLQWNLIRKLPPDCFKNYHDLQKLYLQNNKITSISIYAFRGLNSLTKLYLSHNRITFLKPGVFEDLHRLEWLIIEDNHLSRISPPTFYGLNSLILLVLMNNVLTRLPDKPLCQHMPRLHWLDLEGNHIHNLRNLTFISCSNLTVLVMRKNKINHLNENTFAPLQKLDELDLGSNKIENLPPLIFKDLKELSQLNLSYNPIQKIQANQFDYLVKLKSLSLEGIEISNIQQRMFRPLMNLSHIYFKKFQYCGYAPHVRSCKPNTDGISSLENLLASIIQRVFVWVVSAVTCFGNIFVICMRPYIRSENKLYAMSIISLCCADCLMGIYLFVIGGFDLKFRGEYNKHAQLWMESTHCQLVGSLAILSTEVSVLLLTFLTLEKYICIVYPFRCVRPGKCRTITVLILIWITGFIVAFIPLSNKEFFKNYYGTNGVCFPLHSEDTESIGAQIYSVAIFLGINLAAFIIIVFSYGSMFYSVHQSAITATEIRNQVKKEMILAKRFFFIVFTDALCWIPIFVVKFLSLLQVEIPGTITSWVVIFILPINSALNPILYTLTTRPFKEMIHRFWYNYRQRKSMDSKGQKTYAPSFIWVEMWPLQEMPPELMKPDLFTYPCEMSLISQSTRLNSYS
Summary of the method: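 HEK293 cells stably expressing RXFP1, treated 30 min at 37C with compounds plus PDE4 inhibitor Ro 20174; cAMP measured by HTRF TR-FRET. Normalized to buffer and 29 nM porcine relaxin; EC50 by Hill fit.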
Potency is read from the fitted curve at half-maximal effect; tags tell the direction and shape of the fitted curve.

Row | Compound | Potency
1 | CCn1c(SCC(=O)NCCOc2ccccc2)nc2ccccc2c1=O | inconclusive: 39.8 µM [activator, single point]
2 | Cc1ccc(S(=O)(=O)c2nc(Nc3ccccc3C#N)sc2Cl)cc1 | inconclusive: 28.2 µM [activator, single point]
3 | O=C(NCC1CCCO1)c1c[nH]c2ccc(S(=O)(=O)Nc3cccc(C(F)(F)F)c3)cc2c1=O (stereo unspecified) | inactive
4 | CCn1c(SCC(=O)Nc2ccc(-c3nc4ccc(C)cc4s3)cc2)nnc1-c1ccccc1 | inactive
5 | O=C(Nc1c(C(=O)Nc2ccccc2F)oc2ccccc12)c1cc2ccccc2o1 | inconclusive: 31.6 µM [activator, single point]
6 | CCCCNC(=O)CSc1nnc(C)c2c(C)n(-c3ccccc3)nc12 | inconclusive: 17.8 µM [activator, partial curve]
7 | CCOC(=O)CSc1nc2cc3c(cc2cc1C#N)OCO3 | inconclusive: 35.5 µM [activator, single point]
8 | COc1ccc(OCC(=O)Nc2cccc(-c3nc4ccccc4s3)c2C)cc1 | inconclusive: 35.5 µM [activator, single point]
9 | COc1ccccc1OCC(=O)Nc1nc(-c2ccc(Br)cc2)ns1 | inconclusive: 25.1 µM [activator, single point]
10 | Cc1ccc(NC(=O)CCc2nnc3ccc(N4CCC5(CC4)OCCO5)nn23)nc1 | inconclusive: 15.8 µM [activator, partial curve]
11 | Cc1cc(=O)[nH]c(SCC(=O)c2c(N)n(C)c(=O)n(C)c2=O)n1 | inconclusive: 15.8 µM [activator, partial curve]
12 | Cc1cccc(C)c1-n1nnnc1SCC(=O)N1CCNC1=O | inactive
13 | CC(C)NC(=S)n1cc(C(=O)c2cc(Cl)cc(Cl)c2O)cn1 | inconclusive: 15.8 µM [activator, partial curve]
14 | COc1cc2[nH]c(=O)n(CCC(=O)NC3CCN(Cc4ccccc4)CC3)c(=O)c2cc1OC | inconclusive: 39.8 µM [activator, single point]
15 | CC(C)CN1C(=O)c2ccc(NC(=O)c3ccccc3F)cc2C1=O | inactive
16 | CCOc1ccc(NC(=O)C2CCCN(S(=O)(=O)c3ccc4[nH]c(=O)ccc4c3)C2)cc1 (stereo unspecified) | inconclusive: 35.5 µM [activator, single point] and inconclusive: 39.8 µM [activator, single point]
17 | O=C(O)Cn1cc(C(=O)c2cccs2)c2ccccc21 | inconclusive: 28.2 µM [activator, partial curve]
18 | CCN(CC)c1ccc(NC(=O)CCc2nnc3ccc(N4CCCC4)nn23)c(C)c1 | inactive
19 | O=C(O)CSc1ncnc2c1oc1ccccc12 | inconclusive: 25.1 µM [activator, partial curve]
20 | Cc1c(C(=O)NCCc2ccc(Cl)cc2)sc2nc3n(c(=O)c12)CCCC3 | inactive
21 | Cc1ccccc1CN1c2ccccc2-c2nc(SCC(=O)NCc3ccccc3)ncc2S1(=O)=O | inconclusive: 31.6 µM [activator, single point]

Row | Compound | Potency
22 | Cc1ccc(-c2c(C)sc(NC(=O)C3C4CCC(O4)C3C(=O)O)c2C(=O)OC(C)C)cc1 (stereo unspecified) | inactive
23 | CC(=O)c1ccc(NC(=O)CC(c2cccs2)N2Cc3ccccc3C2=O)cc1 (stereo unspecified) | inconclusive: 35.5 µM [activator, single point]
24 | COc1ccccc1CNS(=O)(=O)c1cc(CN2C(=O)c3cccnc3C2=O)ccc1OC | inconclusive: 15.8 µM [activator, partial curve]
25 | Cc1nnc(N2CCC(C(=O)NCCc3ccccc3)CC2)c2nn(-c3ccc(Cl)cc3)c(C)c12 | inconclusive: 35.5 µM [activator, single point]
26 | CCOc1ccc(-c2nnc(SCC(=O)NCc3ccccc3)o2)cc1 | inconclusive: 39.8 µM [activator, single point]
27 | COc1ccc2c(c1)cc1c(=O)n(CC(=O)NCCCc3ccccc3)nc(C)n12 | inactive
28 | CCOC(=O)c1sc2nc(C)nc(SCC(=O)NC3CCS(=O)(=O)C3)c2c1C (stereo unspecified) | inconclusive: 28.2 µM [activator, partial curve]
29 | COc1ccc(CNC(=O)CSc2ncc3c(n2)-c2ccc(Cl)cc2N(Cc2ccccc2)S3(=O)=O)cc1 | inconclusive: 4.47 µM [activator, full curve]
30 | COc1ccc(CN2C(=O)c3cccnc3C2=O)cc1S(=O)(=O)N1CCCC(C)C1 (stereo unspecified) | active: 7.94 µM
31 | CCC(=O)c1ccc(/C=C/c2nc3ccccc3n2C)o1 | inconclusive: 25.1 µM [activator, partial curve]
32 | COc1ccc(CCN2C(=O)C(O)=C(C(=O)c3ccco3)C2c2cccs2)cc1OC (stereo unspecified) | inconclusive: 39.8 µM [activator, single point]
33 | O=C(Cc1ccccc1)Nc1sc2c(c1C(=O)Nc1cccc(Cl)c1)CCCCC2 | inconclusive: 31.6 µM [activator, partial curve]
34 | CCOC(=O)c1cnc2ccc(Br)cc2c1NCCN1CCOCC1 | inconclusive: 11.2 µM [activator, partial curve]
35 | O=C(Nc1ccc(C(=O)OCc2cc(=O)n3nc(C4CC4)sc3n2)cc1)c1ccccc1 | inconclusive: 22.4 µM [activator, partial curve]
36 | Cc1ccc(C)c(NC(=O)C2CCN(S(=O)(=O)c3c(C)noc3/C=C/c3cccs3)CC2)c1 | inactive
37 | CCOc1ccc(CNC(=O)C2CCN(C(=O)c3ccc(-n4ccc5ccccc54)s3)CC2)cc1 | inconclusive: 14.1 µM [activator, partial curve]
38 | O=C(O)c1nn(CC(=O)N2CCCCCC2)c(=O)c2ccccc12 | inactive
39 | COc1ccc(CNC(=O)CCc2nnc3n(C)c(=O)c4sccc4n23)cc1 | inconclusive: 17.8 µM [activator, partial curve]
40 | COCCn1c(SCC(=O)Nc2cccc(F)c2)nc2c([nH]c3ccccc32)c1=O | inconclusive: 31.6 µM [activator, single point]
41 | Cc1cc(N2C(=O)C(O)=C(C(=O)c3ccco3)C2c2cccc(Cl)c2)no1 (stereo unspecified) | inconclusive: 25.1 µM [activator, partial curve]
